PubChem BioAssay AID1508624 (National Center for Advancing Translational Sciences (NCATS), 2021)
The whole screen tested about 48,000 compounds, of which about 120 (0.25%) were called active. Roughly 4% stayed inconclusive and do not appear here. Calls come from the whole dose curve; as a rule, active = well fitted activation curve with a large enough effect; inconclusive = small, poorly fitted or top-dose-only effect, or another doubt; inactive = no such curve, though single readings can be large or run the other way. Some of the results follow.

Experiment: Primary qHTS for Identification of Small Molecule Activators of Huntingtin-Antisense Promoter Activity; note: nearly all actives have a fitted effect of over 55% in size
Details: HEK293 HTT-AS promoter firefly luciferase reporter, 24 h; series mostly up to 57.5 µM; activity change, positive = activation: at the top concentration
Method in brief: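 Firefly luciferase readout (Dual-Glo, 10 min RT) after 24 h, 37 °C compound exposure (final up to 57.5 uM) of HEK293 reporter cells cultured 24 h beforehand; PTC124 at 50 uM final as control inhibitor; activity scaled vehicle 0%, zero RLU -100%.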

SMILES	activity change, positive = activation
Cc1ccccc1Cc1c(C)nc2nc(SCC(=O)NC(C)c3ccccc3)nn2c1C (centres undefined)	inactive: -11.1%
CCC1CN(C(=O)Nc2cccc3c2CCCC3)c2cc(C)ccc2O1 (centres undefined)	inactive: -30.8%
CCOC(=O)c1c(C)oc2nc(C)nc(NCCCN3CCN(c4cccc(C)c4)C(C)C3)c12 (centres undefined)	inactive: -24.5%
COc1cc(Nc2ncc3c(n2)-c2ccc(Cl)cc2C(c2c(F)cccc2OC)=NC3)ccc1C(=O)O	inactive: -43.8%
CCCCNC(=O)C1CCN(Cc2nc(-c3ccc(OC)c(OC)c3)oc2C)CC1	inactive: -0.222%
Cc1ccc(CNC(=O)CN(c2cc(C)cc(C)c2)S(=O)(=O)c2c(C)[nH]c(=O)[nH]c2=O)cc1	inactive: -6.77%
Cc1ccc(N2CCN(C(=O)c3nn(C)c4c3CSc3ccccc3-4)CC2C)cc1 (centres undefined)	inactive: -4.31%
CCc1ccc(C2c3c(n[nH]c3C)C(=O)N2c2ccc(C)cc2)cc1 (centres undefined)	inactive: 12.4%
CCc1cccc(NC(=O)CCS(=O)(=O)c2ccc(C)cc2)c1	inactive: -16.8%
O=C(NC1CCCC1)c1ccc2c(c1)N(Cc1ccc(F)cc1)C(=O)c1ccccc1S2	inactive: -28.3%
COc1ccc(NC(=O)C(Cc2ccccc2)n2cccc2)c(OC)c1 (centres undefined)	inactive: -24.1%
CC(C)CCNC(=O)CSc1nc2ccsc2c(=O)n1Cc1ccccc1Cl	inactive: -25.4%
COc1ccc(-c2noc(-c3ccccc3NC(=O)c3cc(OC)c(OC)c(OC)c3)n2)cc1	inactive: -4.38%
O=C(c1cccc(Cl)c1)N1CCC(c2nc3c(nnn3Cc3ccc(F)cc3F)c(=O)[nH]2)CC1	inactive: -37.2%
Cc1ccc(-c2nnc(Nc3ccc(Cl)cc3)c3ccccc23)cc1S(=O)(=O)NCC1CCCO1 (centres undefined)	inactive: -13.1%
COc1cc(C(=O)Nc2ccccc2OCc2cc(=O)n3cc(C)sc3n2)cc(OC)c1OC	inactive: -4.46%
COc1ccc(C(=O)c2cn(Cc3ccccc3F)c3ccc(F)cc3c2=O)cc1	inactive: -25.1%
COc1ccc(-c2[nH]c(-c3ccc(OC)c(OC)c3)nc2SCC(=O)Nc2ccccc2)cc1	inactive: -16.2%
Cc1cccc(NC(=O)c2oc3ccc(S(=O)(=O)N4CCCCC4)cc3c2C)c1C	inactive: -10.6%
Cn1ccc2cc(S(=O)(=O)N3CCCN(C(=O)Nc4ccc(Br)cc4)CC3)ccc21	inactive: -27.4%

SMILES	activity change, positive = activation
CCOc1ccccc1C(=O)N(Cc1ccc(N(C)C)cc1)Cc1ccco1	inactive: -33.3%
COc1ccc(CCNC(=O)CSc2nnc(-c3ccc(C)cc3)c(-c3ccc(C)cc3)n2)cc1OC	inactive: -29.5%
Cc1ccc(-c2noc(-c3ccc(NCC4CCCO4)c([N+](=O)[O-])c3)n2)cc1 (centres undefined)	inactive: 4.77%
CCCCOc1cccc(C(=O)N(Cc2ccc(Cl)cc2)C2CCS(=O)(=O)C2)c1 (centres undefined)	inactive: -24.2%
COc1cccc(C2=NN(S(C)(=O)=O)C(c3cn(-c4ccccc4)nc3-c3cccs3)C2)c1 (centres undefined)	inactive: 3.74%
COc1ccc(CNC(=O)CN(C)c2nn3c(=O)cc(C)nc3s2)cc1	inactive: -8.12%
CC(=O)c1ccc(N2CCN(C(=O)CS(=O)(=O)c3cccc4nsnc34)CC2)cc1	inactive: -22.7%
COc1ccccc1NC(=O)N1CC=C(c2c[nH]c3ccccc23)CC1	inactive: 1.52%
CCOc1ccc(C(=O)NCCS(=O)(=O)N2CCN(c3cccc(Cl)c3)CC2)cc1	inactive: -17.5%
CC(=O)Oc1ccc(C2(c3ccc(OC(C)=O)cc3)Oc3ccccc3NC2=O)cc1	inactive: -49.2%
Cc1cc(=O)[nH]c2nnc(SCCC(C)C)n12	inactive: 2%
CC1CN(C(=O)CCC(=O)NCc2cccs2)c2ccccc2O1 (centres undefined)	inactive: 12.4%
COc1ccc(NC(=O)c2c(NCc3ccc(C)o3)sc3c2CCC(C)C3)cc1 (centres undefined)	inactive: 15.3%
Cc1ccc(S(=O)(=O)c2cn(C)c3cc(N4CCN(c5ccccc5)CC4)c(F)cc3c2=O)cc1	inactive: -6.37%
CCOC(=O)N1CCc2c(sc3c2c(=O)n(Cc2ccccc2)c(=O)n3Cc2cccc(Cl)c2)C1	inactive: -12.9%
CCOC(=O)c1ccc(NC(=O)c2nc(S(=O)(=O)Cc3ccccc3)ncc2Cl)cc1	inactive: -96.1%
COc1cc(NC(=O)C2=C(C)Nc3nnnn3C2c2ccc(SC)cc2)c(OC)cc1Cl (centres undefined)	inactive: -21.9%
CCOc1ccccc1NC(=O)C1CCN(S(=O)(=O)c2ccc(Br)cc2)CC1	inactive: -1.17%
Cc1ccc(-n2nc(C(=O)N3CCCCC3C)c(=O)n(C)c2=O)cc1 (centres undefined)	inactive: 0.0128%
Cc1nn(CCCC(=O)NCc2ccccc2)c(=O)c2c1sc1ccccc12	inactive: 3.99%

SMILES	activity change, positive = activation
O=C(NCCCN1CCN(c2ccc(F)cc2)CC1)c1cc2c(s1)-c1ccccc1OC2	inactive: -27.2%
CCOC(=O)c1ccc2c(c1)N(CC(=O)Nc1cc(F)ccc1F)C(=O)c1ccccc1S2	inactive: -10.7%
C[N+]1(C)[C@@H]2CC(OC(=O)[C@H](CO)c3ccccc3)C[C@H]1[C@@H]1O[C@@H]12 (some centres undefined)	inactive: -7.2%
OCC(CO)N[C@H]1C[C@](O)(CO)[C@@H](O)[C@H](O)[C@H]1O	inactive: -5.99%
CC1=C(C(N)=O)C(c2cccc(C)c2)n2nc(-c3ccc(Cl)cc3)nc2N1 (centres undefined)	inactive: -7.62%
CSc1ccccc1NC(=O)C1=CC(c2ccc3c(c2)OCO3)=NS(=O)(=O)N1C	inactive: -16.1%
CCOC(CN1CCN(CC(C)C(=O)c2ccccc2)CC1)c1ccccc1 (centres undefined)	inactive: -9.94% [at 25.1 µM, percent change from vehicle, -100% = no light]
Cc1cccc(-c2nc3cc(NC(=O)Cc4ccc(Cl)cc4)ccc3o2)c1	inactive: -16.3%
CCN(CC)CCOC(=O)c1ccc(NC(=O)c2nn(-c3ccc(C)cc3)c(=O)c3c2c2ccccc2n3C)cc1	inactive: -23.2%
CCOC(=O)CCN(Cc1ccccc1)S(=O)(=O)c1csc(C(N)=O)c1	inactive: 6.64%
CCN(C(=O)Cn1nc2c3cc(F)ccc3n(Cc3cccc(C)c3)cc-2c1=O)c1cccc(C)c1	inactive: -12.4%
COc1cc(OC)c(NC(=O)N2CCOc3ccc(C)cc32)cc1Cl	inactive: -28.4%
COc1ccc(Cn2nnc3c(=O)[nH]c(C4CCCN(C(=O)c5ccccc5Cl)C4)nc32)cc1OC (centres undefined)	inactive: -1.4%
N#Cc1cc2c(=O)n3ccccc3nc2n(-c2nnc(SCc3ccc(F)cc3)s2)c1=O	inactive: -3%
COc1ccc(CNC(=O)c2oc3c(c2C)-c2nn(Cc4ccccc4Cl)cc2CC3)cc1	inactive: -37.1%
Cc1c(C(=O)NCCN(C)C)oc2c1-c1nn(Cc3ccccc3Cl)cc1CC2	inactive: 0.608%
COc1ccccc1-c1c(C)nn2c(N3CCN(c4ccc(Cl)cc4)CC3)cc(C)nc12	inactive: -20%
CCOC(=O)c1ccc(Nc2nc(C)cc(C)n2)cc1	inactive: 3.05%
CC(Sc1nc(-c2ccccc2)c(C#N)c(=O)[nH]1)C(=O)Nc1ccc(F)cc1 (centres undefined)	inactive: -13.2%
